#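 Tested at 5 concentrations; 48 h exposure; 96-well plates; endpoints linearly interpolated, else capped at highest concentration. GI50 = concentration required for 50% inhibition of growth. TGI is the concentration that stops growth completely.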
# Assays:
# Assay in all cases: NCI tumour cell line growth inhibition, 48 h
# BT-549 breast = test system: BT-549 breast
# SK-MEL-5 melanoma = test system: SK-MEL-5 melanoma
# MDA-MB-435 = test system: MDA-MB-435
# HS 578T breast = test system: HS 578T breast
# T-47D breast = test system: T-47D breast
# MDA-MB-231 breast = test system: MDA-MB-231 breast
# M14 melanoma = test system: M14 melanoma
# DU-145 prostate = test system: DU-145 prostate
smiles,measurement,setting,value
CN[C@@H]1C[C@H]2O[C@@](C)([C@@H]1OC)n1c3ccccc3c3c4c(c5c6ccccc6n2c5c31)C(=O)NC4,GI50,BT-549 breast,< 10 nM
same,TGI,BT-549 breast,38.3 nM
same,GI50,SK-MEL-5 melanoma,28.2 nM
same,TGI,SK-MEL-5 melanoma,203 nM
same,GI50,MDA-MB-435,30.8 nM
same,TGI,MDA-MB-435,231 nM
same,GI50,HS 578T breast,< 10 nM
same,TGI,HS 578T breast,2460 nM
same,GI50,T-47D breast,20.7 nM
same,TGI,T-47D breast,339 nM
same,GI50,MDA-MB-231 breast,< 10 nM
same,TGI,MDA-MB-231 breast,201 nM
same,TGI,M14 melanoma,1470 nM
same,GI50,DU-145 prostate,< 10 nM
same,TGI,DU-145 prostate,931 nM

# — PubChem BioAssay (NCI)
